# Several values for one entry are separate records, joined by “and”; a condition that tells them apart may be missing. Identical values can stand only once. The shares of active, inactive and inconclusive entries below differ from those in the screen. Where the call is inconclusive, the potency comes from a doubtful curve fit. Activity calls are given as the source filed them. Calls follow the shape of the dose curve; as a rule, active = well fitted cell-killing curve with a large enough effect; inconclusive = small, poorly fitted or top-dose-only effect, or effect the other way; inactive = no such curve, though single readings can be large or run the other way.
# Experiment: Viability qHTS for spleen associated tyrosine kinase inhibitor (SYKi) drug resistant MV4-11 cells (AID 1963824); also: nearly all actives have a fitted effect of over 35% in size
# Conditions: SYKi-resistant MV4-11 viability, CellTiter-Glo, 72 h; series mostly up to 45 µM
# In short: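 SYK-inhibitor-resistant MV4-11 AML cells were seeded at 500 per well onto compound and cultured 72 hours (37 °C, 5% CO2). CellTiter-Glo was then added, and after 10 min at room temperature, luminescence gave viability.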
# Potency is read from the fitted curve at half-maximal effect; tags tell the direction and shape of the fitted curve.
row,SMILES,Potency
1,Cc1ccc(NC(=O)[C@H]2CCCN(C(=O)c3c(C)cccc3F)[C@H]2c2ccc(NC3CCCC3)cc2)cc1C(F)(F)F,"inconclusive: 7.42 µM [cytotoxic, full curve, poor fit]"
2,OC(CCCN1CCCCC1)(c1ccccc1)c1ccccc1,"inconclusive: 13.3 µM [cytotoxic, partial curve, poor fit]"
3,COC(=O)c1cc(Cl)ccc1NS(=O)(=O)C(F)(F)F,"inconclusive: 33.5 µM [cytotoxic, single point]"
4,O=C(NN1CCCC1)NS(=O)(=O)c1ccc(Cl)cc1,inconclusive: 0.0009 µM
5,CCN(CC)CCOC(=O)C(Cc1cccc2ccccc12)CC1CCCO1 (stereo unspecified),inactive
6,O=c1[nH]c([C@@H]2CCCN2)nc2c1oc1ccc(Cl)cc12,"active: 16.4 µM and inconclusive: 13.2 µM [cytotoxic, partial curve]"
7,CC(=O)OCC(=O)[C@@]1(O)CC[C@H]2[C@@H]3CCC4=CC(=O)C=C[C@]4(C)[C@H]3[C@@H](O)C[C@@]21C,"inconclusive: 10.6 µM [cytotoxic, partial curve, poor fit] and inconclusive: 16.6 µM [cytotoxic, partial curve]"
8,CN1CCC(OC(c2ccccc2)c2ccccc2)CC1,"inconclusive: 11.9 µM [cytotoxic, partial curve]"
9,O=C(CCCCCCCCC#CI)Oc1ccccc1,"inconclusive: 25.9 µM [cytotoxic, single point]"
10,CCc1oc2ccccc2c1C(=O)c1cc(Br)c(O)c(Br)c1,"inconclusive: 0.006 µM [cytotoxic, full curve, poor fit]"
11,CO[C@H]1C=CO[C@@]2(C)Oc3c(C)c(O)c4c(O)c(c(/C=N/N5CCN(C)CC5)c(O)c4c3C2=O)NC(=O)/C(C)=C\C=C[C@H](C)[C@H](O)[C@@H](C)[C@@H](O)[C@@H](C)[C@H](OC(C)=O)[C@@H]1C,"inconclusive: 13.3 µM [cytotoxic, partial curve, poor fit]"

# — PubChem BioAssay (NCATS)
